Test results: PMC10239507, “Development of allosteric and selective CDK2 inhibitors for contraception with negative cooperativity to cyclin binding” (Nature Communications, 2023)
Where “and” joins values, the source holds several entries; their conditions need not be identical. Identical values can stand only once.

Target: GST-tagged CDK2 (human cyclin-dependent kinase 2, 1-298) (human, UniProt P24941)
Test: SPR; GST-CDK2 captured by anti-GST antibody on a CM5 chip (GST on the reference surface); Biacore S200, 20 °C; 20 mM HEPES, 150 mM NaCl, 10 mM MgCl2, 0.01% Tween 20, pH 7.4, no DMSO; single-cycle run, cyclin A 0-100 nM in eight points, 180 s association and 180 s dissociation; kinetic fit; two independent replicates
Details: both partners purified

B1: Bovine cyclin A ([…] with a C-terminal 6His tag) (domain or fragment)
chain: not shown
notes: source: E. coli BL21(DE3)pLysS, purified (Ni, SEC)
**Q.** How did the Kd turn out when B1 was run?
**A.** The Kd was 3.1 nM and 2.6 nM.
